# Among all 48,000 compounds or so, about 120 (0.25%) were called active. Roughly 4% stayed inconclusive and do not appear here. The call rests on the fitted dose curve; in most records, active means well fitted activation curve with a large enough effect; inconclusive means small, poorly fitted or top-dose-only effect, or another doubt; inactive means no such curve, though single readings can be large or run the other way. The list shows a part of the results.
# Experiment: Primary qHTS for Identification of Small Molecule Activators of Huntingtin-Antisense Promoter Activity; further: nearly all actives have a fitted effect of over 55% in size
# Conditions: HEK293 HTT-AS promoter firefly luciferase reporter, 24 h; series mostly up to 57.5 µM; activity change, positive = activation: at the top concentration
# In short: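 Firefly luciferase readout (Dual-Glo, 10 min RT) after 24 h, 37 °C compound exposure (final up to 57.5 uM) of HEK293 reporter cells cultured 24 h beforehand; PTC124 at 50 uM final as control inhibitor; activity scaled vehicle 0%, zero RLU -100%.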
row,SMILES,"activity change, positive = activation"
1,CCOc1ccc(C2CC(=O)c3c([nH]c(C(=O)OCCOc4ccccc4)c3C)C2)cc1 (stereo not given),inactive: -25.6%
2,Cc1nnc2c3ccccc3nc(N3CCN(c4ccccc4)CC3)n12,inactive: -11.9%
3,O=C(c1ccc2c(c1)N(Cc1cccc(Cl)c1)C(=O)c1ccccc1S2(=O)=O)N1CCCC1,inactive: -36.9%
4,Cc1ccccc1Cn1nnc2c(=O)[nH]c(C3CCCN(C(=O)c4ccc(C(C)(C)C)cc4)C3)nc21 (stereo not given),inactive: -27.3%
5,O=C(CSc1nc2ccsc2c(=O)n1-c1ccc(Br)cc1)NCc1ccccc1,inactive: -16.7%
6,COc1cc2ncnc(-n3nc(-c4ccccn4)nc3N)c2cc1OC,inactive: -62.2%
7,O=C(CSc1nnc2scc(-c3ccccc3)n12)Nc1ccc(Cl)cc1,inactive: 10.9%
8,O=C(Nc1cccc(C(F)(F)F)c1)Nc1cccs1,inactive: -4.68%
9,CCCCN(CC)C(=O)C1CCCN(c2ncnc3c2nc2n3CCCCC2)C1 (stereo not given),inactive: -18.7%
10,CCOc1ccc(CNC(=O)CCn2c(=O)c3cccn3c3ccc(F)cc32)cc1,inactive: -19.1%
11,CCOC(=O)c1ccc(NC(=O)c2ccc(CN3C(=O)CCn4nc(C)cc43)cc2)cc1,inactive: -6.49%
12,O=C(NCc1nc2ccccc2[nH]1)c1cccc(Cl)c1,inactive: -8.05%
13,O=C(Cn1c(=O)c2ccccc2n2nncc12)Nc1cccc(F)c1,inactive: -2.17%
14,CCc1cccc(C)c1NC(=O)CCCN1C(=O)C(c2ccccc2)Oc2cccnc21 (stereo not given),inactive: -28.5%
15,CCOC(=O)c1c(C)[nH]c(C)c1S(=O)(=O)N(C)CC(=O)NCc1cccc(Br)c1,inactive: -16.2%
16,COc1ccc(NC(=O)NCCn2nnc3cc(S(=O)(=O)N(C)C)ccc32)cc1,inactive: 0.287%
17,Cc1ccccc1Cn1cnc2nc3c(cc2c1=O)CC(C)CC3 (stereo not given),inactive: 13.1%
18,CCc1cccc(C)c1NC(=O)CCCn1nc(C)c2sc3ccccc3c2c1=O,inactive: -10.1%
19,Cc1cc(N2CCCCC2)nc2ccc(NC(=O)/C=C/c3ccc(OCCC(C)C)cc3)cc12,inactive: -0.484%
20,Cc1ccc2c(CNC3CCCC3)c(C(=O)O)n(Cc3ccc(F)cc3)c2c1,inactive: -8.74%
21,CN(C(=O)CSc1nc2ccccc2n1CC(=O)N(C)C1CCCCC1)c1ccccc1,inactive: -2.97%
22,O=C(O)c1ccc(O)c2ncc(N3CCOCC3)cc12,inactive: -2.52%
23,Cc1cccc(NC(=O)CN2C(=O)CCn3nc(-c4cccn4C)cc32)c1C,inactive: -12.1%
24,COc1ccc(NC(=O)C2CCN(S(=O)(=O)c3cc(-c4noc(C)n4)ccc3C)CC2)cc1,inactive: -33.9%

row,SMILES,"activity change, positive = activation"
1,Cc1ccc(C)c(NC(=O)c2cc(S(=O)(=O)NCCc3ccccc3)ccc2F)c1,inactive: -22.7%
2,CCOC(=O)C1CCCN(C(=O)c2ccc3c(c2)N(Cc2ccc(Cl)cc2)C(=O)c2ccccc2S3=O)C1 (stereo not given),inactive: -35.9%
3,CCCCNC(=O)CCn1c(=O)c2ccccc2n(Cc2cccc(Cl)c2)c1=O,inactive: -11.3%
4,Cc1noc(/C=C/c2ccccc2F)c1S(=O)(=O)N1CCC(C(=O)Nc2ccc(C#N)cc2)CC1,inactive: -15.6%
5,COc1cccc(NC(=O)Nc2ccc3nc(N4CCN(C)CC4)cc(C)c3c2)c1,inactive: 11.1%
6,CCOC(=O)c1cnc2ccc(OCC)cc2c1N1CCN(c2ccccc2F)CC1,inactive: -29.3%
7,CCOC(=O)C1CCC(CN(Cc2ccc(OC)cc2)S(=O)(=O)c2ccc(F)c(C(=O)Nc3cc(C)ccc3C)c2)CC1 (stereo not given),inactive: -13.5%
8,Cc1nc(N2CCCC2)c2c(C(=O)Nc3ccc(Br)cc3F)c(C)oc2n1,inactive: -27.8%
9,CCOc1ccc(NC(=O)c2ccc3snnc3c2)cc1,inactive: 9.39%
10,CC(C)NC(=O)C1CCC(Cn2c(=O)c3sccc3n(CC(=O)Nc3ccccc3)c2=O)CC1 (stereo not given),inactive: -15.5%
11,Cc1ccccc1C(=O)Nc1nc(-c2ccc(Br)cc2)ns1,inactive: -30.7%
12,COc1ccc(-c2csc3nc(-c4ccccc4)oc(=O)c23)cc1OC,inactive: -9.98%
13,CCOC(=O)c1c(C)n(-c2ccccc2)c2ccc(OC(=O)c3cccc(Cl)c3)cc12,inactive: -4.45%
14,Cc1cccc(-c2nc(CSc3nncn4c3cc3sccc34)c(C)o2)c1,inactive: -5.04%
15,CCOC(=O)c1ccc(CN(Cc2ccccc2)S(=O)(=O)c2ccc(Cl)cc2)cc1,inactive: -15%
16,CC(C)Oc1ccc(CNC(=O)C2CCN(C(=O)N3CC(C)Oc4ccccc43)CC2)cc1 (stereo not given),inactive: -32.8%
17,CC(=O)c1cc(-c2ccccc2)n(CC(=O)NCCc2ccc(C)cc2)c1C,inactive: -19.2%
18,FC(F)(F)c1cc(-c2cccc(Br)c2)nc2ncnn12,inactive: -3.37%
19,Cc1ccc(Cl)cc1NC(=O)CCn1c(=O)c2cccn2c2cccnc21,inactive: -3.11%
20,Cc1ccc(NC(=O)Cn2cc3c(n2)CCCC3)c(C)c1,inactive: -9.76%
21,O=C(NC1CCCCC1)c1ccc(CSc2nc3ccncc3n2Cc2ccccc2F)cc1,inactive: 1.75%
22,COc1ccc(NC(=O)CSc2nc(-c3cccs3)cc(C(F)(F)F)n2)c(OC)c1,inactive: -23.2%
23,O=C(CSCc1cnn(-c2ccccc2)c1-n1cccc1)NCc1ccc(F)cc1,inactive: -24.1%
24,CCN(CC)CCCNC(=O)CSc1nc(-c2ccc(OC)cc2)cc(C(F)(F)F)n1,inactive: 2.79%

row,SMILES,"activity change, positive = activation"
1,Oc1c(C(c2ccccc2Cl)N2CCN(Cc3ccccc3)CC2)sc2nc(-c3ccco3)nn12 (stereo not given),inactive: -11.2%
2,CCc1ccc(NC(=O)CSc2ccc(-c3cccs3)nn2)cc1,inactive: -15.5%
3,Cc1noc(Cn2c(=O)c3cc4c(cc3n(CC(=O)Nc3ccccc3F)c2=O)OCO4)n1,inactive: -10.5%
4,CC1CCc2c(sc(NC(=O)Cn3nnc(-c4ccc(C(F)(F)F)cc4)n3)c2C#N)C1 (stereo not given),inactive: 3.52%
5,COc1ccc(CC(=O)NCCc2sc(-c3ccc(Cl)cc3)nc2C)cc1OC,inactive: -40.9%
6,CC1CCN(c2cc3c(cc2F)c(=O)c(S(=O)(=O)c2cccc(Cl)c2)cn3Cc2ccccc2)CC1,inactive: 4.66%
7,COc1ccccc1CNS(=O)(=O)c1ccc(-c2cc(C(F)(F)F)on2)s1,inactive: -30.1%
8,Cn1nc(-c2ccccc2F)c2cc(C(=O)NCc3ccc(Cl)cc3)sc21,inactive: -35.6%
9,COc1ccc(C2=C(C(C)=O)Sc3nnc(-c4ccc(C)cc4)n3N2C(C)=O)cc1OC,inactive: -3.33%
10,COc1ccc(NC(=O)C(=O)NCCc2sc(-c3ccc(Cl)cc3)nc2C)cc1,inactive: 11.2%
11,CCOC(=O)[C@H](CCc1ccccc1)N[C@@H](C)C(=O)N1C(=O)N(C)C[C@H]1C(=O)O,inactive: -1.21%
12,CN1CCCN(C(c2ccccc2)c2ccc(Cl)cc2)CC1 (stereo not given),inactive: -13.4%
13,CCOc1ccc(NC(=O)c2ccc3c(SCC(=O)O)c4c(nc3c2)CCC4)cc1,inactive: -7.88%
14,COc1ccc(OC)c(C2c3c(-c4ccc(Br)cc4)n[nH]c3C(=O)N2c2ccc(Cl)cc2)c1 (stereo not given),inactive: -40.1%
15,C[C@@H]1C[C@H]2[C@@H]3CCC4=CC(=O)C=C[C@]4(C)[C@@]3(Cl)[C@@H](O)C[C@]2(C)[C@@]1(OC(=O)c1ccco1)C(=O)CCl,inactive
16,CCOC(=O)c1c(Nc2cccc(C(=O)OC)c2)nnc(-c2ccccc2)c1-c1ccccc1,inactive: -49.5%
17,COc1ccccc1C(=O)Nc1ccc(NC(=O)c2cccs2)cc1,inactive: -29%
18,CCOc1ccc(S(=O)(=O)NCC(c2ccco2)S(=O)(=O)c2ccc(C)cc2)cc1 (stereo not given),inactive: -12.1%
19,COc1ccc(Nc2cc(C(=O)NCCCN(C)Cc3ccccc3)c3ccccc3n2)c(OC)c1,inactive: -12.4%
20,COc1ccccc1NC(=O)N1CCN(c2nnc(C)c3c(C)n(-c4ccc(Cl)cc4)nc23)CC1,inactive: 2.66%
21,CCOC(=O)c1cnc2c(cnn2CC)c1NN=C(C)C,inactive: 3.72%
22,CCOc1ccccc1NC(=O)COC(=O)c1cn(CC)c2nc(C)ccc2c1=O,inactive: -19.6%
23,COc1cc(-c2nc3ccccn3c2Nc2ccccc2C)ccc1O,inactive: -10.6%
24,O=C(Nc1cccc(C(F)(F)F)c1)N1CCC(CN2CCCCCC2)CC1,inactive: 4.32%

row,SMILES,"activity change, positive = activation"
1,CCc1ccc(CN2C(=O)c3ccccc3C2C(=O)NC2CCCCCC2)cc1 (stereo not given),inactive: -22.4%
2,CCOc1ccc(-c2c(C)nn3c(C)c(C(=O)NCc4cccc(OC)c4)cnc23)cc1OCC,inactive: -20.8%
3,CCc1ccccc1Nc1nn2c(=O)c3ccc(C(=O)NC4CCC(C)CC4)cc3nc2s1 (stereo not given),inactive: -12.4%
4,CC(=O)Nc1ccc(S(=O)(=O)NCc2ccc3c(c2)CCN3C(C)=O)cc1,inactive: -10.8%
5,Cc1oc(-c2ccccc2)nc1Cn1c(SCc2cccc(C(F)(F)F)c2)nc2cccnc21,inactive: -33.9%
6,CCc1cnc2c(c1SCc1c(F)cccc1Cl)c(=O)n(C)c(=O)n2C,inactive: -29.6%
7,CCOc1cc(C(=O)N(Cc2nc(-c3ccc(C)cc3)no2)C(C)C)cc(OCC)c1OCC,inactive: -32.3%
8,COc1ccc(-n2ncc(C(=O)N3CCN(Cc4ccccc4)CC3)c2C2CCN(C(=O)OC(C)(C)C)CC2)cc1,inactive: -12.3%
9,CCOC(=O)c1ccc(NC(=O)CC2C(=O)N(c3ccccc3)C(=O)N2Cc2ccc(C)cc2)cc1 (stereo not given),inactive: -15%
10,Cc1nn(C(=O)COc2ccc(Cl)cc2)c(C)c1Sc1ccccc1,inactive: 17.5%
11,COc1ccc(CCNC(=O)CCCn2c(=O)c3ccccc3n(CC(=O)Nc3cccc(C)c3)c2=O)cc1OC,inactive: -21.2%
12,CCOC(=O)c1c(NC(=O)c2ccc(S(=O)(=O)N3CCC(C)CC3)cc2)sc2c1CCN(C(C)C)C2,inactive: -18.4%
13,O=C(NCc1ccc(F)cc1)c1c2c(nc3ccccc13)C(=O)N(C1CCCCC1)C2,inactive: -11.6%
14,COc1ccc(OC)c(NC(=O)CCNS(=O)(=O)c2cccc3nsnc23)c1,inactive: -2.73%
15,CCOc1ccc2nc(S(N)(=O)=O)sc2c1,inactive: 12.8%
16,CCc1ccc(NC(=O)CSc2nc3n[nH]c(C)c3c(=N)n2-c2ccc(C)cc2)cc1,inactive: -43.2%
17,O=C(Cc1ccc(NC(=O)N2CCCCc3ccccc32)cc1)NCc1ccccc1Br,inactive: -17%
18,Cc1cccc(CCNC(=O)C2CCC(CNS(=O)(=O)c3c(C)cc(C)cc3C)CC2)c1 (stereo not given),inactive: -24.3%
19,COc1cc(Cl)c(C)cc1NC(=O)Cn1cc(S(=O)(=O)N2CCN(c3ccccc3F)CC2)c2ccccc2c1=O,inactive: -4.52%
20,N#Cc1ccc(OC(=O)c2cc(-c3ccc(Cl)cc3)on2)cc1,inactive: 3.56%
21,O=C(CCC1N=C2c3ccccc3N=C(SCC(=O)Nc3ccccc3F)N2C1=O)NCc1ccco1 (stereo not given),inactive: -0.0657%
22,Cc1cccc(NS(=O)(=O)c2ccc3[nH]c(=O)[nH]c3c2)c1C,inactive: -18%
23,N[C@H](C(=O)O)c1ccc(O)cc1,"inactive: -2.5% [at 25.1 µM, percent change from vehicle, -100% = no light]"
